Structures can show the parent of a compound that is named as a salt.
Key:
[1] = target: human dopamine type 3 receptor (hD3) (Homo sapiens (Human), UniProt P35462); experiment: biochemical
[2] = target: human dopamine receptor type 2, long variant (hD2L) (Homo sapiens (Human), UniProt P14416); conditions: functional pKi, CHO-Gα16-hD2L cells, FLIPR Ca2+, dopamine EC80 challenge
Chain of UniProt P14416 (P14416 whole entry): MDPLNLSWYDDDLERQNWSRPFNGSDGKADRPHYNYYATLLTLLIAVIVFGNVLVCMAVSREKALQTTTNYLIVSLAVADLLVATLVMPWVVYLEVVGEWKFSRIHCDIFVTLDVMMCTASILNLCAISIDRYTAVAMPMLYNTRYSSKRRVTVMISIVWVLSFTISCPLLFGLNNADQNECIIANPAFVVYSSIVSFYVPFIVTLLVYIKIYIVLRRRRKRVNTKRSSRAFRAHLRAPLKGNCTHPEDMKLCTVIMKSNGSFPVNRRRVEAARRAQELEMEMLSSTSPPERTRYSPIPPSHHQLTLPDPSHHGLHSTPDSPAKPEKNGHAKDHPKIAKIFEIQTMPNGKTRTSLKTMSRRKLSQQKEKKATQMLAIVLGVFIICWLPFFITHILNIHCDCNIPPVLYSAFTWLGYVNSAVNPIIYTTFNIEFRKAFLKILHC

Chain of UniProt P35462 (P35462 whole entry): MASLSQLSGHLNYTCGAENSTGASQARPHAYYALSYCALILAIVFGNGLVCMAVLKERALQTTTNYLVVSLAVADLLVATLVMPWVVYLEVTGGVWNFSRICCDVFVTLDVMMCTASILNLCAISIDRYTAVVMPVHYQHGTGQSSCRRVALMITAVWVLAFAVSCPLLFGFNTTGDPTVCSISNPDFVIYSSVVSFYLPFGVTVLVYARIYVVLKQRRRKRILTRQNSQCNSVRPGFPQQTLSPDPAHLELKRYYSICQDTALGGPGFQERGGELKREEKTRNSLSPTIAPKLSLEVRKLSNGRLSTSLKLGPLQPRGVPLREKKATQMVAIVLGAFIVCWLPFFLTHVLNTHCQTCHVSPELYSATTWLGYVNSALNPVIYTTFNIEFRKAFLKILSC

Row | Compound | Ki [1] [nM] | D2 fpKi [2]
1 | Cn1c(SCCCN2C[C@@H]3CCN(c4ccc(C(F)(F)F)cc4)[C@@H]3C2)nnc1C1CCOCC1 (single isomer, unassigned) [Example 34, 3-({3-[(3aS,6aS or 3aR,6aR)-1-[4-(trifluoromethyl)phenyl]-octahydropyrrolo[2,3-c]pyrrol-5-yl]propyl}sulfanyl)-4-methyl-5-(oxan-4-yl)-4H-1,2,4-triazole] | 3.09 | 
2 | Cn1c(SCCCN2C[C@H]3CCN(c4ccc(C(F)(F)F)cc4)[C@H]3C2)nnc1C1CCOCC1 (single isomer, unassigned) [Example 35, 3-({3-[(3aR,6aR or 3aS,6aS)-1-[4-(trifluoromethyl)phenyl]-octahydropyrrolo[2,3-c]pyrrol-5-yl]propyl}sulfanyl)-4-methyl-5-(oxan-4-yl)-4H-1,2,4-triazole] | 5.25 | 
3 | Cn1c(SCCCN2C[C@@H]3CCN(c4ccccc4)[C@@H]3C2)nnc1C1CCOCC1 (single isomer, unassigned) [Example 39, 3-({3-[(3aS,6aS or 3aR,6aR)-1-phenyl-octahydropyrrolo[2,3-c]pyrrol-5-yl]propyl}sulfanyl)-4-methyl-5-(oxan-4-yl)-4H-1,2,4-triazole] | 6.92 | 
4 | Cn1c(SCCCN2C[C@H]3CCN(c4ccccc4)[C@H]3C2)nnc1C1CCOCC1 (single isomer, unassigned) [Example 40, 3-({3-[(3aR,6aR or 3aS,6aS)-1-phenyl-octahydropyrrolo[2,3-c]pyrrol-5-yl]propyl}sulfanyl)-4-methyl-5-(oxan-4-yl)-4H-1,2,4-triazole] | 26.9 | 
5 | Cn1c(SCCCN2C[C@@H]3CCN(c4ccc(C(F)(F)F)cc4)[C@@H]3C2)nnc1C1CCCCC1 (single isomer, unassigned) [Example 59, 3-({3-[(3aS,6aS or 3aR,6aR)-1-[4-(trifluoromethyl)phenyl]-octahydropyrrolo[3,4-b]pyrrol-5-yl]propyl}sulfanyl)-5-cyclohexyl-4-methyl-4H-1,2,4-triazole] | 0.398 | 
6 | Cn1c(SCCCN2C[C@H]3CCN(c4ccc(C(F)(F)F)cc4)[C@H]3C2)nnc1C1CCCCC1 (single isomer, unassigned) [Example 60, 3-({3-[(3aR,6aR or 3aS,6aS)-1-[4-(trifluoromethyl)phenyl]-octahydropyrrolo[3,4-b]pyrrol-5-yl]propyl}sulfanyl)-5-cyclohexyl-4-methyl-4H-1,2,4-triazole] | 0.407 | 
7 | Cn1c(SCCCN2C[C@@H]3CCN(c4cccnc4)[C@@H]3C2)nnc1C1CCCCC1 (single isomer, unassigned) [Example 69, 3-[(3aS,6aS or 3aR,6aR)-5-{3-[(5-cyclohexyl-4-methyl-4H-1,2,4-triazol-3-yl)sulfanyl]propyl}-octahydropyrrolo[2,3-c]pyrrol-1-yl]pyridine] | 11.7 | 
8 | Cn1c(SCCCN2C[C@H]3CCN(c4cccnc4)[C@H]3C2)nnc1C1CCCCC1 (single isomer, unassigned) [Example 70, 3-[(3aR,6aR or 3aS,6aS)-5-{3-[(5-cyclohexyl-4-methyl-4H-1,2,4-triazol-3-yl)sulfanyl]propyl}-octahydropyrrolo[2,3-c]pyrrol-1-yl]pyridine] | 20.9 | 
9 | Cn1c(CCCCN2C[C@@H]3CCN(c4ccc(C(F)(F)F)cc4)[C@@H]3C2)nnc1C1CCOCC1 (single isomer, unassigned) [Example 216, 3-{4-[(3aS,6aS or 3aR,6aR)-1-[4-(trifluoromethyl)phenyl]-octahydropyrrolo[3,4-b]pyrrol-5-yl]butyl}-4-methyl-5-(oxan-4-yl)-4H-1,2,4-triazole Dihydrochloride] | 20.4 | 
10 | Cc1ncoc1-c1nnc(SCCCN2C[C@H]3CC[C@H](c4ccc(C(F)(F)F)cc4)[C@H]3C2)n1C (single isomer, unassigned) [Example 226, 4-methyl-3-(4-methyl-1,3-oxazol-5-yl)-5-({3-[(4S or 4R)-4-[4-(trifluoromethyl)phenyl]-octahydrocyclopenta[c]pyrrol-2-yl]propyl}sulfanyl)-4H-1,2,4-triazole Hydrochloride] | 3.72 | 
11 | Cc1ncoc1-c1nnc(SCCCN2C[C@H]3CC[C@@H](c4ccc(C(F)(F)F)cc4)[C@H]3C2)n1C (single isomer, unassigned) [Example 227, 4-methyl-3-(4-methyl-1,3-oxazol-5-yl)-5-({3-[(4R or 4S)-4-[4-(trifluoromethyl)phenyl]-octahydrocyclopenta[c]pyrrol-2-yl]propyl}sulfanyl)-4H-1,2,4-triazole Hydrochloride] | 35.5 | 
12 | Cl.Cl.Cn1c(SCCCN2C[C@H]3CCN(c4ccc(C(F)(F)F)cc4)[C@H]3C2)nnc1C1CCC(O)CC1 (stereo in doubt) [Example 221, 4-{4-methyl-5-[(3-{1-[4-(trifluoromethyl)phenyl]-octahydropyrrolo[2,3-c]pyrrol-5-yl}propyl)sulfanyl]-4H-1,2,4-triazol-3-yl}cyclohexan-1-ol Dihydrochloride] |  | 6.16
